Assay: soluble fraction after stress (log2 fold change); higher = more stays soluble; pooled small domains, quantitative proteomics
Conditions: stress: 50 degC
Method in brief: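 Custom libraries of small protein domains were pooled and measured in a high-throughput format, with quantitative proteomics as the read-out. Each library was stressed at 50°C. The value is the log2 fold change in the amount of each protein that stays soluble after stress, used as a measure of aggregation propensity; higher values mean more of the protein stays soluble.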
For “HMAMINTVQPILVEGLSKKNNDTLFGRTENNRVVNFEGSRSLIGNFVNIKITEALSNSLRGIIQS”, the “soluble fraction (log2)” value was -0.126. For “HMSASHYDVLNLKKTASETEIKKAYRKLAVEYHPDKVMNLGEEYQKAAKEKFQKVQEAYEQIKLERGI”, the “soluble fraction (log2)” value was 0.136. For “HMKVDQVDDAELLDLVEMEIRELLSSYDFPGDDVPIVKGSALAAVEDRDEAIGKNSIIELMSKVDEYIPAP”, the “soluble fraction (log2)” value was 0.059. In the case of “HMAKGTVKWFNETKGYGFIAPEGGKKDVFVHITALERAGLRGLKDGQAVNFDIEAGRDGRESAINITL”, the “soluble fraction (log2)” value is reported as -0.121. In the case of “HMVDDEELLDLVEMEVRELLDDYEFPGDDTPIIRGSALMALEDPAGPWGDKIVELFEAVDSYIP”, the “soluble fraction (log2)” value is reported as -0.0338. For “HMYDTKLTTQDAADYLGISRPTLEKLLEQGDIPFTRVGRHRRVMLSDLQHYAVTQHDKNMQIFDAIAA”, the “soluble fraction (log2)” value was -0.0704. For “HMQPVNIEPRSPLHAQVLLDRANFSPGQIDGEVGSNQRRAVSGLQAARGLKVTGELDEETWQALQAD”, the “soluble fraction (log2)” value was 0.031. With “HMDEEMLELVEMEMRELLSFYDFDGDNTPIIRGSALGALNGVPQWEDKVMELMDAVDTWIPLP” the “soluble fraction (log2)” value was -0.44. With “HMGMVGTNHRILVDGVSRKNAGHLSGRTENNRVVNFAAGEASIGDFRDVRITEALPNSLRAEVLG” the “soluble fraction (log2)” value was 0.0476.

Reference: the domain aggregation screens of Martell et al. (2025)
